# Measured values reported in PubChem BioAssay AID1671193 (National Center for Advancing Translational Sciences (NCATS), 2021).
# Among all 150,000 compounds or so, about 180 (0.12%) were called active. The inconclusive results got no clear call from the source; some entries with a clear call stand among them for comparison. Calls follow the shape of the dose curve; as a rule, active = well fitted cell-killing curve with a large enough effect; inconclusive = small, poorly fitted or top-dose-only effect, or effect the other way; inactive = flat fitted curve, though single readings scatter. Potencies of inconclusive entries are doubtful fits and often do not repeat.
# Experiment: GF-AFC viability counterscreen for inhibitors of alpha-synuclein gene (SNCA) expression; also: nearly all actives have a fitted effect of over 30% in size
# Conditions: HEK-293-SNCA-luc viability, GF-AFC fluorescence, 24 h; series mostly up to 57.1 µM
# Summary of the method: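 HEK-293-SNCA-luc cells (1500/well) plated 24 h, then exposed 24 h to a dilution series; GF-AFC added 30 min at 37C, fluorescence 405/540 nm; normalised to medium-only and DMSO wells, Hill fit.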
# Potency is read from the fitted curve at half-maximal effect; tags tell the direction and shape of the fitted curve.
row,SMILES,Potency
1,OC[C@H]1O[C@@H](OCc2ccccc2)[C@H](O[C@@H]2OC[C@@H](O)[C@H](O)[C@H]2O)[C@@H](O)[C@@H]1O,"inconclusive: 2.32 µM [cytotoxic, single point]"
2,CCCc1noc(-c2ccn3c(CNC(=O)c4cc5ccccc5[nH]4)nnc3c2)n1,"inconclusive: 15.8 µM [cytotoxic, partial curve, poor fit]"
3,O=C1NC(=NC2CCCCC2)C2(CCN(CC3CC3)C2)N1c1cccnc1 (stereo unspecified),inactive
4,CO[C@@H]1CCOC[C@H]1NS(=O)(=O)c1ccc(S(C)(=O)=O)cc1,"inconclusive: 3.98 µM [rising, full curve, poor fit]"
5,COc1cccc(-c2cc3c(=O)n(CCNC(=O)C(C)Oc4ccccc4)ccn3n2)c1 (stereo unspecified),inactive
6,C=CC(=O)N1CCC[C@@H](n2nc(-c3ccc(Oc4ccccc4)cc3)c3c(N)ncnc32)C1,"inconclusive: 8.44 µM [cytotoxic, partial curve, poor fit]"
7,O=C(NCc1ccc(F)cc1)C1CCCN(c2ccnc3ccnn23)C1 (stereo unspecified),inactive
8,Cc1cc(N2CCN(C)CC2)nc2ccc(NC(=O)c3ccc(C(C)(C)C)cc3)cc12,"inconclusive: 39.8 µM [cytotoxic, single point]"
9,COc1cccc([S+](=O)([O-])N2CCn3ncc(C(=O)N4CCOCC4)c3C2)c1,"inconclusive: 7.08 µM [cytotoxic, single point]"
10,O=C(c1ccncc1)N1CC(Oc2ccccc2-c2nc(-c3cnccn3)no2)C1,"inconclusive: 11.2 µM [cytotoxic, partial curve, poor fit]"
11,C[C@@H]1C(=O)O[C@H]2[C@H]1CC[C@@]1(C)Cc3sc(NC(=O)NC4CCCCC4)nc3[C@@H](C)[C@H]21,inactive
12,COc1ccc(C(=O)N[C@@H]2CCC[C@@H]2C(=O)N2CCN(c3ccccn3)CC2)cc1,"inconclusive: 39.8 µM [cytotoxic, single point]"
13,O=C(NC1CCCCC1)O[C@@H]1CO[C@H]2[C@@H]1OC[C@@H]2Nc1nccc(-c2cccs2)n1,"inconclusive: 56.2 µM [cytotoxic, single point]"
14,c1ccc(-c2nc(C3CC3)no2)c(OC2CN(Cc3ccncc3)C2)c1,"inconclusive: 3.55 µM [cytotoxic, single point]"
15,CCc1ccc(-n2c(=O)c3ccccc3n(CC(=O)NCCc3ccc(OC)c(OC)c3)c2=O)cc1,"inconclusive: 10 µM [cytotoxic, partial curve]"
16,O=C(O)c1ccccc1C(=O)Nc1ccc(-c2ccccc2)cc1,"inconclusive: 8.44 µM [cytotoxic, partial curve, poor fit]"
17,Cc1ccc(Cl)cc1-n1nnc(-c2nsc(NC(=O)c3ccccc3Cl)n2)c1C,inactive
18,CN1CCN(c2ncc3nc(-c4cn(C)c5ccccc45)c(=O)n(C)c3n2)CC1,"inconclusive: 39.8 µM [rising, partial curve, poor fit]"
19,c1ccc(CCN2CCNc3cc(NCCN4CCOCC4)ncc3C2)cc1,"inconclusive: 28.2 µM [cytotoxic, partial curve]"
20,COc1ccc(CC(=O)Nc2cc(-c3cn4cccnc4n3)ccc2C)cc1OC,"inconclusive: 8.91 µM [cytotoxic, partial curve, poor fit]"
21,O=S(=O)(c1ccccc1)N1CCC(c2nc(-c3ccccc3)no2)C1 (stereo unspecified),"inconclusive: 3.98 µM [cytotoxic, single point]"

row,SMILES,Potency
1,Cc1ccc(CNC(=O)N2CC[C@@H]3C(=O)NCCCCCCN(Cc4ccncc4)[C@@H]3C2)cc1,inactive
2,COc1ccc(C(=O)N[C@H]2C[C@H]3C(=O)Nc4cc(Cl)ccc4C(=O)N3C2)cc1,"inconclusive: 15.8 µM [cytotoxic, partial curve, poor fit]"
3,COC(=O)C(Cc1ccccc1)NC(=O)c1ccccc1 (stereo unspecified),inactive
4,N#Cc1cccc(CN2CCC3(CC2)CC(Cc2nc(C4CC4)no2)CCO3)c1 (stereo unspecified),"inconclusive: 17.8 µM [cytotoxic, single point]"
5,Cc1cc(-c2cc(O)ccc2Cl)cc2nnc(Nc3ccc(OCCN4CCCC4)cc3)nc12,"inconclusive: 29.9 µM [cytotoxic, single point]"
6,COc1ccc(Nc2cc3c(cn2)CN(CCc2ccccc2)CCN3)cc1OC,"inconclusive: 22.4 µM [cytotoxic, partial curve, poor fit]"
7,CCCCN(CC)C(=O)CSc1nc2n[nH]c(C)c2c(=N)n1-c1cccc(C)c1,"inconclusive: 28.2 µM [cytotoxic, single point]"
8,C=CC(=O)Nc1ccc2ncnc(Nc3ccc(OCc4cccc(F)c4)c(Cl)c3)c2c1,"inconclusive: 13.4 µM [cytotoxic, partial curve, poor fit]"
9,O=C(NCc1ccccc1)c1nc(S(=O)(=O)Cc2ccc(F)cc2)ncc1Cl,"inconclusive: 25.1 µM [cytotoxic, partial curve, poor fit]"
10,COc1ccc(S(=O)(=O)c2cnc3cc(OC)c(OC)cc3c2N2CCCC(C)C2)cc1 (stereo unspecified),"inconclusive: 22.4 µM [cytotoxic, single point]"
11,CCc1cccc(NC(=O)N2c3ccccc3CC2c2nc(CCOC)no2)c1 (stereo unspecified),"inconclusive: 17.8 µM [cytotoxic, partial curve, poor fit]"
12,COc1ccc(N(CC(=O)NC(C)c2ccccc2)S(=O)(=O)c2c(C)nn(C)c2C)cc1 (stereo unspecified),"inconclusive: 39.8 µM [rising, partial curve, poor fit]"
13,CC(C)c1ccc(CN2CCCC3(CCN(C(=O)c4ccnn4C)C3)C2)cc1 (stereo unspecified),inactive
14,Cn1cc(CN2C[C@H](C(=O)Nc3ccccc3)C[C@@H]2c2cccc(C(F)(F)F)c2)cn1,"inconclusive: 56.2 µM [cytotoxic, single point]"
15,Cc1ccc(-c2cccc(CN3CCCC(NC(=O)c4ccccc4C)C3)c2)cc1Cl (stereo unspecified),inactive
16,O=C(NCc1ccccc1F)c1ccc2c(c1)CN(Cc1ccccc1F)CCO2,"inconclusive: 12.6 µM [cytotoxic, partial curve, poor fit]"
17,CN1CCN(c2ncc3nc(-c4ccc(Cl)cc4)c(=O)n(C)c3n2)CC1,"inconclusive: 39.8 µM [rising, single point]"
18,COc1ccc(NC(=O)N2CCc3c(nc4cc(-c5ccccc5)[nH]n4c3=O)C2)c(OC)c1,inactive
19,COc1ccc(C2Cn3nnc(-c4noc(-c5cc(F)ccc5F)n4)c3CO2)cc1 (stereo unspecified),"inconclusive: 7.94 µM [cytotoxic, full curve, poor fit]"
20,COc1cc(Cl)ccc1C(=O)N[C@@H]1C[C@H]2C(=O)N(C)CC(=O)N2C1,inactive
21,COCCOc1cc(C)c2c(c1C)C[C@H](C(C)C(=O)N1CCC(O)CC1)CC2 (stereo partly specified),inactive

row,SMILES,Potency
1,CC1=C[C@@H](CNC(=O)C2CC2)[C@H](C(C)C)C[C@H]1CC(=O)Nc1ccccn1,"inconclusive: 50.1 µM [cytotoxic, partial curve, poor fit]"
2,CCCn1c(=O)c2sccc2n2c(CCCC(=O)Nc3ccc(C)c(F)c3)nnc12,"inconclusive: 2.24 µM [cytotoxic, full curve, poor fit]"
3,Cn1cccc1C(=O)N1CCC2(CCCN(C(=O)Nc3cccc(F)c3)C2)CC1,"inconclusive: 28.2 µM [cytotoxic, partial curve, poor fit]"
4,COC(=O)[C@@H]1Cc2ncn(Cc3ccc(Cl)cc3)c2CN1Cc1cccnc1,"inconclusive: 56.2 µM [cytotoxic, single point]"
5,CC(C)NC(=O)c1ccccc1OCC1CCCN(Cc2ccc3[nH]ccc3c2)C1 (stereo unspecified),"inconclusive: 31.6 µM [cytotoxic, partial curve, poor fit]"
6,COc1ccccc1C(=O)Nc1ccc(-c2nc3ccccc3s2)c(C)c1,inactive
7,Cc1cc(C)c(CNC(=O)c2cc(-c3cnn(C)c3C)cc3c2OCCN3C)c(=O)[nH]1,inactive
8,N#CCCn1c(=O)c(-c2cccs2)nc2cnc(OCc3ccccc3)nc21,"inconclusive: 15.8 µM [rising, partial curve]"
9,CC(=O)NC1CC2(CCN(C(=O)C3CCN(C)CC3)CC2)c2ccccc21 (stereo unspecified),inactive
10,Cc1ccc([N+](=O)[O-])cc1S(=O)(=O)N(C)N=Cc1cnc2ccc(Br)cn12,"inconclusive: 0.0215 µM [cytotoxic, full curve, poor fit]"
11,C[C@H](C(=O)N1CCOCC1)C1CC[C@@]2(C)Cc3sc(CS(=O)(=O)C(C)(C)C)nc3[C@@H](C)[C@@H]2[C@H]1O (stereo partly specified),inactive
12,O=c1c(-c2ccccc2)nc2cnc(N3CCNCC3)nc2n1Cc1cccs1,"inconclusive: 25.1 µM [rising, single point]"
13,CCNC(=O)NCC1Cn2cccc2CN1C (stereo unspecified),inactive
14,NOCC(=O)O,"inconclusive: 39.8 µM [cytotoxic, single point]"
15,COc1cccc(NS(=O)(=O)c2ccc3[nH]cc(C(=O)N(C)C4CCCCC4)c(=O)c3c2)c1,"inconclusive: 0.355 µM [rising, full curve, poor fit]"
16,O=C(NCc1ccccc1)c1ccc2c(c1)n(Cc1ccc(F)cc1)c(=O)c1ccnn12,"inconclusive: 39.8 µM [cytotoxic, single point]"
17,O=C(CC1CCCC1)N1CCCCCC1c1nnc(-c2ccccc2)o1 (stereo unspecified),"inconclusive: 7.94 µM [cytotoxic, partial curve, poor fit]"
18,Cc1cc(N2CCN(C(=O)Oc3ccc(-c4ccccc4)cn3)CC2)c2ccccc2n1,"inconclusive: 37.7 µM [cytotoxic, single point]"
19,CCC(C(=O)NC1CCN(c2cnn(C)c(=O)c2)CC1)c1ccccc1 (stereo unspecified),"inconclusive: 7.94 µM [cytotoxic, full curve, poor fit]"
